Measurements reported in PubChem BioAssay (NCI).
“And” between values parts separate entries of the source, which are not always exact repeats. Identical values can stand only once.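 Dose response: 5 concentrations. Exposure: 48 h. Format: 96-well plates. Endpoint: linear interpolation; highest concentration if not reached. GI50 marks 50% less growth. TGI: concentration producing complete growth inhibition.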 The source made the active and inactive calls.

Legend:
Experiment in all cases: inhibition of tumour cell growth, NCI panel, 48 h
UACC-62 melanoma = system: UACC-62 melanoma
RXF 393 renal = system: RXF 393 renal
HCC-2998 colon = system: HCC-2998 colon
SF-268 CNS = system: SF-268 CNS
SNB-75 CNS = system: SNB-75 CNS
A498 renal = system: A498 renal
HOP-92 NSCLC = system: HOP-92 NSCLC
U251 CNS = system: U251 CNS
SNB-19 CNS = system: SNB-19 CNS
PC-3 prostate = system: PC-3 prostate
T-47D breast = system: T-47D breast
MCF7 breast = system: MCF7 breast
HCT-116 colon = system: HCT-116 colon
K-562 leukemia = system: K-562 leukemia
COLO 205 colon = system: COLO 205 colon
SN12C renal = system: SN12C renal
A549 NSCLC = system: A549 NSCLC
UO-31 renal = system: UO-31 renal
HL-60(TB) leukemia = system: HL-60(TB) leukemia
NCI-H226 lung = system: NCI-H226 lung
MDA-MB-435 = system: MDA-MB-435
786-0 renal = system: 786-0 renal
HOP-62 NSCLC = system: HOP-62 NSCLC
SW-620 colon = system: SW-620 colon
MDA-N = system: MDA-N
NCI-H522 lung = system: NCI-H522 lung
ACHN renal = system: ACHN renal
M14 melanoma = system: M14 melanoma
RPMI-8226 leukemia = system: RPMI-8226 leukemia
SF-295 CNS = system: SF-295 CNS
OVCAR-5 ovarian = system: OVCAR-5 ovarian

**Q.** Which results are given for `CCOC(=O)Oc1cc2c(c(OC)c1OC)-c1ccc(SC)c(=O)cc1[C@@H](NC(C)=O)CC2`?
**A.** TGI (UACC-62 melanoma): > 100000 nM; TGI (RXF 393 renal): 972 nM; TGI (HCC-2998 colon): 835 nM; TGI (SF-268 CNS): > 100000 nM; TGI (SNB-75 CNS): > 100000 nM; TGI (A498 renal): 648 nM; TGI (HOP-92 NSCLC): 2350 nM; TGI (U251 CNS): 60.2 nM; TGI (SNB-19 CNS): > 100000 nM; TGI (PC-3 prostate): > 100000 nM; GI50 (T-47D breast): > 100000 nM; TGI (T-47D breast): > 100000 nM; TGI (MCF7 breast): > 100000 nM; TGI (HCT-116 colon): 1110 nM; TGI (K-562 leukemia): > 100000 nM; TGI (COLO 205 colon): 164 nM and 22.9 nM; TGI (SN12C renal): > 100000 nM; TGI (A549 NSCLC): > 100000 nM; TGI (UO-31 renal): > 100000 nM; TGI (HL-60(TB) leukemia): 326 nM; TGI (NCI-H226 lung): 22.4 nM; TGI (MDA-MB-435): 3.03 nM; TGI (786-0 renal): > 100000 nM; TGI (HOP-62 NSCLC): > 100000 nM; TGI (SW-620 colon): > 100000 nM; TGI (MDA-N): 11 nM; TGI (NCI-H522 lung): 90.9 nM; TGI (ACHN renal): > 100000 nM; TGI (M14 melanoma): > 100000 nM; TGI (RPMI-8226 leukemia): > 100000 nM; TGI (SF-295 CNS): 329 nM; GI50 (OVCAR-5 ovarian): inactive; TGI (OVCAR-5 ovarian): > 100000 nM
